# About 4,200 (1.3%) of roughly 330,000 compounds were called active. The inconclusive results got no clear call from the source; some entries with a clear call stand among them for comparison. The call rests on the fitted dose curve; in most records, active means well fitted activation curve with a large enough effect; inconclusive means small, poorly fitted or top-dose-only effect; inactive means no such curve, though single readings can be large or run the other way. Potencies beside an inconclusive call are fits to weak or partial responses and may not hold up.
# Assay: qHTS screen for small molecules that induce genotoxicity in human embryonic kidney (HEK293T) cells expressing luciferase-tagged ELG1; further: nearly all actives have a fitted effect of over 60% in size
# Settings: HEK293T ELG1-luciferase reporter, luminescence, 16 h; series mostly up to 46 µM
# Procedure, shortened: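 Step 1: seed 2,000 HEK293T ELG1-luciferase cells per well. Step 2: add compound or DMSO, incubate 16 hr at 37 °C. Step 3: ONE-Glo, 30 min at room temperature, read luminescence.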
# Potency means the concentration at half of the fitted maximal effect; tags describe the fitted curve by direction and shape.
row,Structure (SMILES),Potency
1,O=C(c1cc(-c2ccc(Cl)cc2Cl)on1)N1CCCC1,active: 2.91 µM
2,COc1cc(CO)ccc1OCc1ccc(Cl)nc1,active: 16.4 µM
3,N/C(=N\OC(=O)c1ccco1)c1ccccc1,"inconclusive: 18.4 µM [activator, partial curve]"
4,Cc1ccc(OCc2nc(-c3ccccc3)no2)cc1,"inconclusive: 18.3 µM [activator, partial curve]"
5,CCCCOc1ccc(CSc2ncn[nH]2)cc1,inactive
6,N#Cc1ccc(C(=O)NC2CCCCCCC2)cc1,"inconclusive: 4.61 µM [activator, partial curve, poor fit]"
7,CCc1ccc(CN(C)CC(=O)Nc2sccc2C#N)cc1,inactive
8,Cc1nc(-c2ccc(C(=O)NCCO)cc2)cs1,"inconclusive: 10.3 µM [activator, partial curve, poor fit]"
9,Cc1ccc(Cn2nc(C)c(NC(=O)c3noc4c3CCCCC4)c2C)cc1,inactive
10,O=C(NCCc1ccccc1)Nc1ccc(Cl)cc1,"inconclusive: 6.51 µM [activator, partial curve]"
11,Cc1cc(NC(=O)c2cc(-c3ccc(C)s3)nc3ccccc23)no1,inactive
12,Cc1nnc2c3ccccc3c(-c3ccc(O)cc3)nn12,"inconclusive: 18.4 µM [activator, single point]"
13,Cc1ccccc1C(=O)N1CCN(c2ccc(NC(=S)NC(=O)c3cccs3)cc2)CC1,inactive
14,O=c1oc2ccccc2cc1-c1nc(-c2ccccc2)no1,"inconclusive: 1.64 µM [activator, full curve]"
15,Cc1ccc(C(=O)O/N=C(\N)c2ccc(Br)cc2)cc1,active: 12.6 µM
16,O=C(Nc1ccc2[nH]c3c(c2c1)CCCC3)c1ccco1,inactive
17,COCCn1nnnc1SCC(=O)c1ccccc1,"inconclusive: 23.1 µM [activator, partial curve, poor fit]"
18,O=S(=O)(NCCc1csc(-c2ccc(C(F)(F)F)cc2)n1)c1ccc2c(c1)OCCO2,"inconclusive: 23.1 µM [activator, single point]"
19,CC(=O)c1cccc(OCc2cc(C(=O)N3C[C@H]4CC[C@H]3C4)no2)c1,"inconclusive: 9.2 µM [activator, partial curve]"
20,Cc1cc(C)n(-c2nnc3c4ccccc4n(C)c3n2)n1,"inconclusive: 5.17 µM [activator, partial curve]"
21,Cc1cc2sc(NC(=O)c3ccco3)nc2cc1Cl,"inconclusive: 2.31 µM [activator, partial curve]"
22,CCN(CC)CCCNC(=O)c1cc2c(=O)n(CC)c3ccccc3c2s1,"inconclusive: 4.11 µM [activator, partial curve, poor fit]"

# Reference: PubChem BioAssay AID504466 (National Center for Advancing Translational Sciences (NCATS), 2011)
